Laboratory results published in PubChem BioAssay AID624417 (National Center for Advancing Translational Sciences (NCATS), 2012).
Screen size: about 410,000 compounds; about 6,400 (1.6%) were called active. The inconclusive results got no clear call from the source; some entries with a clear call stand among them for comparison. Calls come from the whole dose curve; as a rule, active = well fitted inhibition curve with a large enough effect; inconclusive = small, poorly fitted or top-dose-only effect; inactive = no such curve, though single readings can be large or run the other way. Potencies of inconclusive entries are doubtful fits and often do not repeat.

Each molecule was assayed against Glucagon-like peptide 1 receptor (Homo sapiens) (UniProt P43220) (assay: qHTS of GLP-1 Receptor Inverse Agonists (Inhibition Mode)). Details: HEK293 GLP-1R CRE-luciferase, luminescence, 24 h, GLP-1R form is constitutively active; series mostly up to 38.3 µM.
Chain of UniProt P43220 (P43220 whole entry, looked up): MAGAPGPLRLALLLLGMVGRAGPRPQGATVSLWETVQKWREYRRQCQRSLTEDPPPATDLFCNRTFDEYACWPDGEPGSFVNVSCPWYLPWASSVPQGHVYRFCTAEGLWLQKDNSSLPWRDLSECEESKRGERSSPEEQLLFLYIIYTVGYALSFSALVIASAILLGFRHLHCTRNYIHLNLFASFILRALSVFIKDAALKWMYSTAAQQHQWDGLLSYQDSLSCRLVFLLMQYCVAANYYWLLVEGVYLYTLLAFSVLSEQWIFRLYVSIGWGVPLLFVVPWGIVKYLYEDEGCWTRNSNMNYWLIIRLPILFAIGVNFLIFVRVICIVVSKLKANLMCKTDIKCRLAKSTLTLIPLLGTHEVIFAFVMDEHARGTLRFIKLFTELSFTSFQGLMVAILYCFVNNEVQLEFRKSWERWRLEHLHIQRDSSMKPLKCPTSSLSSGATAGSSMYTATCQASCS
Summary of the method: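 Luminescence readout: a drop in cAMP-driven luciferase signal flags inverse agonism at a constitutively active GLP-1R stably expressed in HEK293. Compound exposure lasted 24 hr at 37 deg C, 5% CO2.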
Note: nearly all actives have a fitted effect of over 55% in size.
Potency is the fitted concentration of half-maximal effect; tags give direction and shape of the fitted curve.

Potency, inactive:
O=C(CNc1ccccc1)N/N=C/c1cn(-c2ccccc2)nc1-c1ccccc1, COc1ccc(N2CCN(C(=O)CCS(=O)(=O)c3cc4c(cc3Cl)NC(=O)CO4)CC2)cc1, O=C(CS(=O)c1ccccc1[N+](=O)[O-])Oc1ccc(Br)cc1 (stereo not drawn), Cc1cccc(C)c1NC(=O)C(C)n1c(-c2ccc(=O)[nH]c2)nc2ccccc21 (stereo not drawn), CCOC(=O)/C(C#N)=C/c1cccc(C)c1, COC(=O)CCc1sc(Nc2ccc(OC)cc2)nc1-c1ccc(OC)cc1

Potency, inconclusive:
CC(=Nc1ccccc1)C1=C(O)C(CC(C)C)NC1=O (stereo not drawn) 0.501 µM [inhibitor, full curve, poor fit], COc1ccccc1N(C)S(=O)(=O)c1ccc(C(=O)N(C)Cc2ccc(OC(F)F)cc2)cc1 11.2 µM [inhibitor, partial curve, poor fit], NNC(=O)CNC(c1ccccc1)c1cc(Br)ccc1NC(=O)c1cccc(Cl)c1 (stereo not drawn) 31.6 µM [inhibitor, partial curve, poor fit], Clc1ccc(-c2csc(=Nc3cccnc3)n2CCCn2ccnc2)cc1Cl 7.94 µM [inhibitor, partial curve, poor fit], COc1ccc(NC(=O)CS(=O)(=O)c2ccc(Br)cc2)cc1 28.2 µM [inhibitor, single point], CCCC(=O)Nc1ccc(C(=O)COC(=O)c2cc(C)oc2C)cc1 28.2 µM [inhibitor, single point], COc1ccc(-c2nc(NC(=O)c3ccc(OCC(=O)N4CCOCC4)c(OC)c3)sc2C)cc1 17.8 µM [inhibitor, partial curve, poor fit], COc1ccc(C2/C=C\CN(C(=O)OCc3ccccc3)CC(=O)N2Cc2ccc(F)cc2)cc1 (stereo not drawn) 11.2 µM [inhibitor, single point], CCOC(=O)c1ccc(NC(=O)CN2C(=O)NC3(CCCCCC3)C2=O)cc1 3.16 µM [inhibitor, full curve, poor fit], C[C@@H](C(=O)NCCc1c[nH]c2ccccc12)[C@@H]1C[C@@]1(C)[C@@H](NC(=O)OCc1ccccc1)c1ccccc1 22.4 µM [inhibitor, single point], CN(C)S(=O)(=O)c1cc(NC(=O)c2cc(=O)c3ccccc3o2)ccc1Cl 28.2 µM [inhibitor, single point]

Potency, active:
O=C(CCl)N1CCN(S(=O)(=O)c2ccc3ccccc3c2)CC1 10 µM
